Source: PubChem BioAssay AID1458 (National Center for Advancing Translational Sciences (NCATS), 2008)
Among all 210,000 compounds or so, about 5,900 (2.8%) were called active. Inconclusive means that the source gave no clear call. Such entries were picked first, then a sample of the others. Calls follow the shape of the dose curve; as a rule, active = well fitted activation curve with a large enough effect; inconclusive = small, poorly fitted or top-dose-only effect; inactive = no such curve, though single readings can be large or run the other way. Potencies of inconclusive entries are doubtful fits and often do not repeat.

Assay: qHTS Assay for Enhancers of SMN2 Splice Variant Expression; also: nearly all actives have a fitted effect of over 55% in size; as to activity change, positive = activation: % of control where 0% means no effect
Settings: HEK293 SMN2-luciferase splicing reporter, luminescence, 30-36 h; activity change, positive = activation: at 46.1 µM (top of the series)
Outline: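 HEK293 cells carry an SMN2 minigene-luciferase reporter in which exon 7 inclusion puts luciferase in frame. Cells were seeded at 2000 cells/well, attached for 10-12 hours, then exposed to compounds for 30-36 hours at 37C before ONE-Glo luminescence.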
Potency is read from the fitted curve at half-maximal effect; tags tell the direction and shape of the fitted curve.

| SMILES | Potency | activity change, positive = activation |
| --- | --- | --- |
| O=C(NNC(=O)c1cc2c(s1)CCCC2)c1ccccc1 | inconclusive: 20 µM [activator, single point] | – |
| Cc1nn(-c2ccccc2)c(C)c1N | inconclusive: 6.31 µM [activator, single point] | – |
| COCCNC(=O)CCCCCN1C(=O)CCC1=O | inconclusive: 1 µM [activator, full curve] | – |
| CCN(CC)c1ccc(-n2nc3cc(C)c(NC(=O)c4ccccc4C)cc3n2)c(C)c1 | active: 6.31 µM | – |
| O=C(NP(=O)(N1CCOCC1)N1CCOCC1)C1=C(N2CCOCC2)/C(=C\c2ccccc2)CC1 | – | inactive: 5.31% |
| COc1ccccc1CNC(=O)CSc1ccccc1 | inconclusive: 14.1 µM [activator, single point] | – |
| CC(=O)Nc1ccc(Oc2nc(C)cc(C)n2)cc1 | inconclusive: 6.31 µM [activator, partial curve, poor fit] | – |
| CC(C)(C)c1ccc(C(=O)/C=C2\NC(=O)CS2)cc1 | active: 3.16 µM | – |
| Cc1cc(N2CCN(C)CC2)nc2ccc(NC(=S)N3CCCCC3)cc12 | inconclusive: 35.5 µM [activator, single point] | – |
| CCc1ccc(NC(=O)c2ccc3nc(N)sc3c2)cc1 | inconclusive: 14.1 µM [activator, single point] | – |
| COCCCN=C1NN=C(c2cc(C)n(Cc3ccco3)c2C)CS1 | inconclusive: 5.62 µM [activator, single point] | – |
| CCc1ccc(NC(=O)Cn2c(=O)n(-c3cc(OC)c(OC)c(OC)c3)c(=O)c3ccccc32)cc1 | inconclusive: 3.98 µM [activator, single point] | – |
| c1ccc2c(c1)nc(NCC1CCCO1)c1nnnn12 (stereo not given) | inconclusive: 17.8 µM [activator, single point] | – |
| C/C=C(\C)c1nnc(NC(=O)OCC)s1 | inconclusive: 14.1 µM [activator, single point] | – |
| Cc1cnc(C(=O)Nc2nnc(C(C)C)s2)cn1 | active: 12.6 µM | – |
| CNC(=O)[C@@H]1C[C@H]1[C@@H](NC(=O)OCc1ccccc1)c1ccccc1 | inconclusive: 12.6 µM [activator, single point] | – |
| COc1ccc(C2CC(=O)c3c(O)cc(O)cc3O2)cc1O (stereo not given) | inconclusive: 31.6 µM [activator, single point] | – |
| N#CC1=C(N)Oc2cc(N)ccc2C1C1CCCCC1 (stereo not given) | inconclusive: 8.91 µM [activator, partial curve, poor fit] | – |
| COc1cc(/C=C(\C#N)C(=O)N2CCOCC2)ccc1OCc1ccccc1 | inconclusive: 20 µM [activator, single point] | – |
| CCOc1cc(/C=N/O)ccc1OCc1ccc([N+](=O)[O-])cc1 | – | inactive: -26.9% |
| CCC1(C)Cc2c(sc3c2c(=O)n(C)c2nnc(SCc4ccccc4)n32)CO1 (stereo not given) | inconclusive: 5.62 µM [activator, partial curve, poor fit] | – |
| COc1ccc2nc(NC(=O)c3cc(=O)c4cc(C)cc(C)c4o3)sc2c1 | – | inactive: -7.98% |
| CC(=O)c1sc(N/N=C\c2ccccc2O)nc1C | inconclusive: 35.5 µM [activator, single point] | – |

| SMILES | Potency | activity change, positive = activation |
| --- | --- | --- |
| COc1cc2c(cc1OC)C(C)N(C(=O)CCN1C(=O)C3C4C=CC(C4)C3C1=O)CC2 (stereo not given) | inconclusive: 2.82 µM [activator, single point] | – |
| Cc1cc(C)nc(-n2nc(C)c(Sc3ccc(F)cc3)c2N)n1 | active: 15.8 µM | – |
| O=C(Nc1ccc(Cl)cc1)NC1CCCCC1 | active: 11.2 µM | – |
| COc1ccc(C(=O)N(CN2CCCC2=O)c2cc(C)on2)cc1OC | inconclusive: 4.47 µM [activator, single point] | – |
| Cc1nn2c(COc3ccc(NC(=O)C(C)C)cc3)nnc2c2ccccc12 | – | inactive: -23.1% |
| COc1ccc(NC(=O)c2c(F)cccc2F)cc1S(=O)(=O)Nc1ccc(Br)cc1 | inconclusive: 6.31 µM [activator, full curve] | – |
| Cc1ccc2oc(=O)c(/C=C(\O)CC(C)C)nc2c1 | inconclusive: 0.891 µM [activator, full curve, poor fit] | – |
| COc1ccc2c(c1)-c1c(ssc1=S)C(C)(C)N2 | – | inactive: -4.18% |
| O=S(=O)(c1ccccc1)N1c2cc(Cl)ccc2Oc2nc3ccccc3nc21 | inconclusive: 15.8 µM [activator, partial curve] | – |
| COc1ccc(/C=C2\NC(=O)[C@@H]3Cc4ccccc4CN3C2=O)cc1 | – | inactive: 4.1% |
| CCOC(=O)C1(C)/C(=N/Nc2ccc(Cl)cc2)C(=O)C(=O)N1c1ccccc1 (stereo not given) | inconclusive: 0.0501 µM [activator, full curve, poor fit] | – |
| Cc1cc(NS(=O)(=O)c2ccc(NC(=O)COc3ccccc3Br)cc2)no1 | – | inactive: -0.13% |
| CC(C)Nc1nc(Cl)nc(N(C#N)CN2C(=O)c3ccccc3C2=O)n1 | inconclusive: 1.58 µM [activator, full curve, poor fit] | – |
| CC[n+]1c(C)n(-c2ccccc2)c2ccc(C(=O)OC)cc21 | inconclusive: 17.8 µM [activator, single point] | – |
| Cc1cc(C)n2nc(SCc3cc(=O)oc4cc(O)ccc34)nc2n1 | inconclusive: 8.91 µM [activator, partial curve, poor fit] | – |
| O=C(Nc1ccccn1)c1ccco1 | inconclusive: 14.1 µM [activator, single point] | – |
| CC(=O)/C=C(\C)Nc1ccc(-c2cnc(-c3ccccc3)o2)cc1 | active: 3.98 µM | – |
| O=C(c1cccn2c(=O)c3cc4ccccc4cc3nc12)N1CCN(c2ccccc2)CC1 | inconclusive: 35.5 µM [activator, single point] | – |
| O=C(Nc1ccon1)c1ccc2c(c1)OCO2 | inconclusive: 25.1 µM [activator, single point] | – |
| COc1ccc(CCN2C(=O)C(O)=C(C(C)=O)C2c2ccccc2OC)cc1OC (stereo not given) | inconclusive: 5.01 µM [activator, partial curve] | – |
| COc1cc(O)cc(/C=C/c2ccccc2)c1 | inconclusive: 25.1 µM [activator, single point] | – |
| CN(C)S(=O)(=O)c1ccc(C(=O)Nc2nc3ccccc3[nH]2)cc1 | active: 11.2 µM | – |
